The source of these data is doi:10.1101/2024.08.07.607021.

Sequences of proteins named here, by UniProt entry; tags and fusion partners are left off. A change or cut given only in a name is not applied to a line headed by its entry.
UniProt P51809: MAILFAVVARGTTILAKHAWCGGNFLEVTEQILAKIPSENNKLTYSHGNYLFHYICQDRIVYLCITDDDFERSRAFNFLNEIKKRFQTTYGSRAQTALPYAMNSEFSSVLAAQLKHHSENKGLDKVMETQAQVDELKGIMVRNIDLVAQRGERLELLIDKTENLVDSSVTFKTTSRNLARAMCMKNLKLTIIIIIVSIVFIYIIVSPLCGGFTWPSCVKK
UniProt Q01628: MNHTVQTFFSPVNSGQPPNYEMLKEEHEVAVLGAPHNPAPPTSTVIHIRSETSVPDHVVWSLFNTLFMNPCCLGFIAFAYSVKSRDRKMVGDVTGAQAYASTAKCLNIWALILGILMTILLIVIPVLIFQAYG
UniProt Q12846: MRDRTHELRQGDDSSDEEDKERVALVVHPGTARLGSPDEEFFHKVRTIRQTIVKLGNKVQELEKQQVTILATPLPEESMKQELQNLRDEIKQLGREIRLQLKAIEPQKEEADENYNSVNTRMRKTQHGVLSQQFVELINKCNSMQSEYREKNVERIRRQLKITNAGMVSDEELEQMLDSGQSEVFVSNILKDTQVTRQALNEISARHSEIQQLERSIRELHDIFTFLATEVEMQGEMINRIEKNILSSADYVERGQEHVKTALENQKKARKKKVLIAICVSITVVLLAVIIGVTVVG

Experiment [1] addresses VAMP7-myc (human) (UniProt P51809). The experiment is described as follows: co-IP; HEK293T co-transfected with one FLAG-tagged CD225 protein and one HA- or Myc-tagged SNARE; lysis in 50 mM Tris-HCl pH 7.4, 1.0% TritonX-100, 150 mM NaCl, 1 mM EDTA; IP with anti-HA, anti-FLAG or anti-myc on Dynabeads, 3 hr at 4°C; immunoblot. (In general: In western blotting, separated proteins are transferred to a membrane and probed.)

The target of experiment [2] is T1, VAMP8-HA (human) (UniProt Q9BV40).
T1 sequence: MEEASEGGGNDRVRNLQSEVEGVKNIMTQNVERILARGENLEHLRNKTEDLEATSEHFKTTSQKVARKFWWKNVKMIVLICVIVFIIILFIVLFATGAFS
Described as above.

Experiment [3] has as its target T2, STX7-HA (syntaxin 7), in HEK293T (human) (UniProt O15400).
T2 sequence: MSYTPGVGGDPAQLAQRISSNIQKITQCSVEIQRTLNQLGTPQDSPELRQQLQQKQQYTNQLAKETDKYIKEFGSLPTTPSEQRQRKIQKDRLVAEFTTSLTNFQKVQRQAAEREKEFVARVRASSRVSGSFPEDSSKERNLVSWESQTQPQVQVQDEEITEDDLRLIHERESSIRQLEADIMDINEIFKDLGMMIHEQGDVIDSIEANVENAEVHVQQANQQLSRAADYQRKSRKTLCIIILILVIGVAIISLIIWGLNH
Described as above.

The target of experiment [4] is T3, STX8-HA (syntaxin 8) (human) (UniProt Q9UNK0).
T3 sequence: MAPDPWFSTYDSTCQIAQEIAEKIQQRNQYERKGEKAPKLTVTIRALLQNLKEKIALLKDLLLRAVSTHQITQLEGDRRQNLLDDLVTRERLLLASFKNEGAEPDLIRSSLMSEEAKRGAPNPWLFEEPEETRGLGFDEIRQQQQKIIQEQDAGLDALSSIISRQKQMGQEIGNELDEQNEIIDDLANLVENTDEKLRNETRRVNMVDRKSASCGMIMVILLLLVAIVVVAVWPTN
Described as above.

The target of experiment [5] is T2, STX7-HA (syntaxin 7), in HEK293T (human). The experiment is described as follows: co-IP; HEK293T stably expressing Empty Vector, IFITM3 WT-FLAG or IFITM3 G95L-FLAG, co-transfected with STX7-HA and VAMP8-Myc or VAMP7-Myc; STX7-HA immunoprecipitated with anti-HA; immunoblot with anti-HA, anti-FLAG, anti-Myc.
In experiment [6] the target is T4, STX7-HA (syntaxin 7), in HeLa (human) (UniProt O15400).
T4 sequence: T2 sequence
Description: co-IP; HeLa (WT or IFITM3 KO) transfected with STX7-HA; STX7-HA immunoprecipitated with anti-HA; immunoblot for endogenous IFITM3, STX8, Vti1b; isotype matched antibody as control.

Experiment [7] deals with T5, endogenous VAMP8 (HeLa) (human (endogenous in HeLa)) (UniProt Q9BV40).
T5 sequence: T1 sequence
Description: co-IP; HeLa (WT or IFITM3 KO); endogenous STX8, Vti1b, VAMP8 or VAMP7 immunoprecipitated with its antibody; immunoblot for endogenous IFITM3 or VAMP8.

Experiment [8] concerns the target T6, endogenous Vti1b (HeLa) (human (endogenous in HeLa)) (UniProt Q9UEU0).
T6 sequence: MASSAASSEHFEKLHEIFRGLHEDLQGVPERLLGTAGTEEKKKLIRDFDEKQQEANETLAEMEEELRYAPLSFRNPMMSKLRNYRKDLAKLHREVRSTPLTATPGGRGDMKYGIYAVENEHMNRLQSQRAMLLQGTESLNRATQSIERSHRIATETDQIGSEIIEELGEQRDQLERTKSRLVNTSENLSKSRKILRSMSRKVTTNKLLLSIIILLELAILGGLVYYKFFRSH
The experiment is described as above.

Experiment [9] addresses endogenous VAMP7 (HeLa) (human (endogenous in HeLa)) (UniProt P51809). Described as above.
In experiment [10] the target is T7, endogenous STX8 (HeLa) (human (endogenous in HeLa)) (UniProt Q9UNK0).
T7 sequence: T3 sequence
Described as above.

The target of experiment [11] is T8, STX7-HA (syntaxin 7), in HEK293T (human), O15400.
T8 chain: T2 sequence
Description: co-IP; HEK293T stably expressing Empty Vector, IFITM3 WT-FLAG or IFITM3 G95L-FLAG, co-transfected with STX7-HA and VAMP8-Myc or VAMP7-Myc; STX7-HA immunoprecipitated with anti-HA; immunoblot with anti-HA, anti-FLAG, anti-Myc. Conditions: remark: other sources report otherwise.

The target of experiment [12] is T9, endogenous STX8 (HeLa) (human (endogenous in HeLa)), Q9UNK0.
T9 chain: T3 sequence
Description: co-IP; HeLa (WT or IFITM3 KO); endogenous STX8, Vti1b, VAMP8 or VAMP7 immunoprecipitated with its antibody; immunoblot for endogenous IFITM3 or VAMP8. The conditions noted are these: remark: other sources report otherwise.

Experiment [13] concerns the target IFITM3-FLAG WT (interferon-induced transmembrane protein 3) (human) (UniProt Q01628). The experiment is described as follows: co-IP; HEK293T co-transfected with one FLAG-tagged CD225 protein and one HA- or Myc-tagged SNARE; lysis in 50 mM Tris-HCl pH 7.4, 1.0% TritonX-100, 150 mM NaCl, 1 mM EDTA; IP with anti-HA, anti-FLAG or anti-myc on Dynabeads, 3 hr at 4°C; immunoblot.

Experiment [14] has as its target STX4-HA (syntaxin 4) (UniProt Q12846). Described as above.

Substitutions are numbered along the chain they refer to. In names and notes the source's numbering stands. These are yes or no findings as the source states them, for the method shown. Binding seen in cells or lysates may run through a third protein. Some results given as binding are weak or reduced against the parent protein; the word gives no strength. For part of these data: Sequences can lack the tags named with a protein.

Consider “IFITM3-FLAG G95L (from UniProt Q01628 1-133)”, for which the binding entry in experiment [1] and in [2] was “binds” in each case.
As for “IFITM3-FLAG WT (interferon-induced transmembrane protein 3) (from UniProt Q01628 1-133)”, the binding result in experiment [1], in experiment [3], in experiment [2], in [4] and in experiment [5] was “binds” throughout.
For “endogenous IFITM3 (HeLa) (from UniProt Q01628 1-133)”, the binding result in experiment [6], in [7], in experiment [8], in [9] and in experiment [10] was “binds” in each case.

B1: VAMP8-Myc, Q9BV40 1-100 (protein)
chain: T1 sequence
Consider B1, for which the binding result in experiment [11] is on record as “binds”.

B2: endogenous VAMP8 (HeLa), Q9BV40 1-100 (protein)
chain: T1 sequence
Take B2: the binding result in [12] is “binds”.

B3: STX7-HA (syntaxin 7), in HEK293T (protein, UniProt O15400 1-261)
chain: T2 sequence
B3: in [13], the binding entry is listed as “binds”.

B4: endogenous STX8 (HeLa) (protein, UniProt Q9UNK0 1-236)
chain: T3 sequence
Regarding B4, in experiment [6], the binding result is on record as “binds”.

B5: TUSC5-FLAG WT (trafficking regulator of GLUT4) (protein, UniProt Q8IXB3 1-177)
chain: MAHPVQSEFPSAQEPGSAAFLDLPEMEILLTKAENKDDKTLNLSKTLSGPLDLEQNSQGLPFKAISEGHLEAPLPRSPSRASSRRASSIATTSYAQDQEAPRDYLILAVVACFCPVWPLNLIPLIISIMSRSSMQQGNVDGARRLGRLARLLSITLIIMGIVIIMVAVTVNFTVQKK
Regarding B5, the binding entry in [14] was “binds”.

B6: TUSC5-FLAG G141W (protein, UniProt Q8IXB3 1-177)
chain: B5 chain with G141W
Regarding B6, the binding entry in experiment [14] is “no binding”.
